Laboratory results taken from PMC12592532.
Results are given in words; binding and its absence hold for the method and conditions named. For part of these data: Binding seen in cells or lysates may run through a third protein. Some results given as binding are weak or reduced against the parent protein; the word gives no strength. For part of these data: Tags and fused reporters may be left off the sequences shown. One block for each binder: values may come before it.

The chains behind the UniProt entries cited, without tags or fusion partners.
UniProt Q9BPZ7: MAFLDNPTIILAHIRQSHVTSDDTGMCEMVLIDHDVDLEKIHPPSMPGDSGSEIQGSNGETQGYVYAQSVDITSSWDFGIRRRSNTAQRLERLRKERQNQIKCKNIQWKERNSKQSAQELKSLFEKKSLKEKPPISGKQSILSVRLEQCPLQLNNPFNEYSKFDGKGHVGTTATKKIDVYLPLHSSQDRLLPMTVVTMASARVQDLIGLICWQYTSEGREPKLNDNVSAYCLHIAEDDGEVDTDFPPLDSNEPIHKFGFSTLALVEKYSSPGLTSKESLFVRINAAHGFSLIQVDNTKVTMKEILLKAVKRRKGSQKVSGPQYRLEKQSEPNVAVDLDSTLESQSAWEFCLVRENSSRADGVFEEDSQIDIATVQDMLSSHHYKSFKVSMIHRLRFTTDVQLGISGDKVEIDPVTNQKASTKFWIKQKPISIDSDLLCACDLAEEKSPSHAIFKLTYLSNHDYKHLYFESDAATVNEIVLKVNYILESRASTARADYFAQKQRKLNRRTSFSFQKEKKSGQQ
UniProt Q8N122: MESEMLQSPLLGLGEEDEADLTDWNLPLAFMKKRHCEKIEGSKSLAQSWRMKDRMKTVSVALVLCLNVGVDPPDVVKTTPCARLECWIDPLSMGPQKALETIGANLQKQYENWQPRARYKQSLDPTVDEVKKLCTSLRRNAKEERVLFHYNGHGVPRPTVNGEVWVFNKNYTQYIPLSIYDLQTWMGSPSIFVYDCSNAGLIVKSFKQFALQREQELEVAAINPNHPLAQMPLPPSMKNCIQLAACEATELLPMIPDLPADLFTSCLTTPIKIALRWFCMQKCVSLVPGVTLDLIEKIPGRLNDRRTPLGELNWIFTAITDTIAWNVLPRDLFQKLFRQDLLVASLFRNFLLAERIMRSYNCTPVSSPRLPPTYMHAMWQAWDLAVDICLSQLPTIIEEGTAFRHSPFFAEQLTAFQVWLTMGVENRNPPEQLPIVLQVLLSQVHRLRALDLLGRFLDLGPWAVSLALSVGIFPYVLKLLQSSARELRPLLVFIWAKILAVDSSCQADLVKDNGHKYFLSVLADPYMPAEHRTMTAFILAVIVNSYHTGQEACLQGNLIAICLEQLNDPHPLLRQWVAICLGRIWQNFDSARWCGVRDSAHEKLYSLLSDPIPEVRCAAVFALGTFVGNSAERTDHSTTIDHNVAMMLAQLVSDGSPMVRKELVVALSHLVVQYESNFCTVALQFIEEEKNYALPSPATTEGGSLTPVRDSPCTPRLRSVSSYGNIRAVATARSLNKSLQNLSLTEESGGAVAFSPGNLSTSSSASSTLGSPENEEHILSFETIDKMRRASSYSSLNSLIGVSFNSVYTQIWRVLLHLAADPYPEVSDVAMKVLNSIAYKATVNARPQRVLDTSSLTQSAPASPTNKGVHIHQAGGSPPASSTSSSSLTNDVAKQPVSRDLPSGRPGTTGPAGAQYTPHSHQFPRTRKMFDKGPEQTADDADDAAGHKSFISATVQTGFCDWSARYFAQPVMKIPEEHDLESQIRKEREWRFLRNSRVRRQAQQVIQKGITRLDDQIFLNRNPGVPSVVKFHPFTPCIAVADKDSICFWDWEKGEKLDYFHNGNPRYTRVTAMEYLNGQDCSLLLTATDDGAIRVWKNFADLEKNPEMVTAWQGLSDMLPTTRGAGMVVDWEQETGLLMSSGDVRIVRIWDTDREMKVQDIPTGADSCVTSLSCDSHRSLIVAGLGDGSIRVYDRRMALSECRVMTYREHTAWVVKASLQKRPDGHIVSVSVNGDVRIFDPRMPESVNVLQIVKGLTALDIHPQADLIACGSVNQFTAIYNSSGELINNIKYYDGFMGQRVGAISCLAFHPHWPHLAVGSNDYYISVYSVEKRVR
UniProt Q6R327: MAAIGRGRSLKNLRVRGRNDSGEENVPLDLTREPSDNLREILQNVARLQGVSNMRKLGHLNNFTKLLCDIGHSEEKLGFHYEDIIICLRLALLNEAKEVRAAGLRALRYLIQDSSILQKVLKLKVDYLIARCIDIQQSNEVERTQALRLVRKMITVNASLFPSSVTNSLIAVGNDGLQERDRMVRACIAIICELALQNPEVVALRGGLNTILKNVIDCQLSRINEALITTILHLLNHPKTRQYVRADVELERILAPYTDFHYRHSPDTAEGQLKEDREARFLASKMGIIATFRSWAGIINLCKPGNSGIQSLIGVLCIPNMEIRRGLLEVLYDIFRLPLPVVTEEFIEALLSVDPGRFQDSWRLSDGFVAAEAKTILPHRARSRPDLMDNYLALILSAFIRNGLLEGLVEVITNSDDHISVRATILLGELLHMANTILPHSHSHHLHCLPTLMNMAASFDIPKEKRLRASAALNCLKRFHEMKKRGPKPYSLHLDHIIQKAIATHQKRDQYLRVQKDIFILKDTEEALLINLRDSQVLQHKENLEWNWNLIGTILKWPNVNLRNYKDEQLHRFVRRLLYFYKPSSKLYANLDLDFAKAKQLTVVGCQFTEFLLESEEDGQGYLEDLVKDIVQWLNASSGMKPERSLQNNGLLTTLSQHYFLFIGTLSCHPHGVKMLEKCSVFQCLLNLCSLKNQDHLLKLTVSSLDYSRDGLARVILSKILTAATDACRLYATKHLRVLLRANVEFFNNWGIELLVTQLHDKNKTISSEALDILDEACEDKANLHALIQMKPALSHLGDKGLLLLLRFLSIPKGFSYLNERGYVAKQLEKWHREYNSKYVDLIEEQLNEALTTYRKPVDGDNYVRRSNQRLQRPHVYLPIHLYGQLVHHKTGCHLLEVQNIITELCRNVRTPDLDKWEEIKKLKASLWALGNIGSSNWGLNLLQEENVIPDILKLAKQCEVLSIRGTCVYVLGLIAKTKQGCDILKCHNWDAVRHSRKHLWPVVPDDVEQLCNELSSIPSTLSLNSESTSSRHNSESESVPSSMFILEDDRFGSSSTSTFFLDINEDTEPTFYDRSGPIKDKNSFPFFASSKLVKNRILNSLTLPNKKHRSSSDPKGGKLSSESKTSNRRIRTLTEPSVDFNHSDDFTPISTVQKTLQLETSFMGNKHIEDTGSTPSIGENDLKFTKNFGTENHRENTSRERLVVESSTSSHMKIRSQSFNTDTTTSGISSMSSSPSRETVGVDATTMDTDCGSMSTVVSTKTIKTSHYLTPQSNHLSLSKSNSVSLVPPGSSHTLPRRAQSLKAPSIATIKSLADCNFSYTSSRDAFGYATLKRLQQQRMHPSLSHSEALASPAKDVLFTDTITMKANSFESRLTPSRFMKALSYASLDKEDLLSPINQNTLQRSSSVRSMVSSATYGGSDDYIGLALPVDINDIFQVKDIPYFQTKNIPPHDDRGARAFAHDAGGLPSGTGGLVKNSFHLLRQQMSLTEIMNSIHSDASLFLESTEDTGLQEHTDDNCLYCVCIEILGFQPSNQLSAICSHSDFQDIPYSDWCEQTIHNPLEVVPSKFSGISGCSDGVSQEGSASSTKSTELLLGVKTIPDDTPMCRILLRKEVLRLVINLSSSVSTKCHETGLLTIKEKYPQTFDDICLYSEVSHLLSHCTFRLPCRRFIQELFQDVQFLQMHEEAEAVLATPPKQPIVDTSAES

Key:
[1] = molecular target: GST-mSIN (UniProt Q9BPZ7); test: pull-down; GST or GST-mSIN immobilised on glutathione sepharose 4B beads, incubated with bacterially purified MBP-PTPN22 (2–2.5 µg), 2 h at 4 °C; immunoblot anti-MBP (Fig. 3D); both purified
[2] = molecular target: MBP-mSIN (UniProt Q9BPZ7); test: pull-down; MBP or MBP-mSIN immobilised on dextran sepharose beads, incubated with bacterially purified GST-AKT (0.5 µg) in the presence of recombinant His-PTPN22 or equal volume of buffer, 1 h at 4 °C; immunoblot with AKT antibody (Fig. EV4F,G); both purified
[3] = molecular target: SFB-PRAS40 (UniProt Q96B36); test: pull-down; HEK293T co-transfected with SFB-tagged mTORC1/mTORC2 components and Myc-PTPN22; 0.3% CHAPS buffer; S-protein agarose beads, immunoblot anti-Myc (Fig. 1E)
[4] = molecular target: SFB-RAPTOR (UniProt Q8N122); test: as above
[5] = molecular target: SFB-RICTOR full length (FL) (UniProt Q6R327); test: as above
[6] = molecular target: SFB-mSIN1 full length (UniProt Q9BPZ7); test: as above
[7] = molecular target: SFB-mSIN1 full length (UniProt Q9BPZ7); test: pull-down; HEK293T cells with stable knockdown of RICTOR, co-transfected with one SFB-tagged and one Myc-tagged protein (PTPN22 and mSIN); 1% Triton X-100 buffer; S-protein agarose beads, immunoblot anti-Myc (Fig. 4B, 4G)
[8] = molecular target: SFB-RICTOR full length (FL) (UniProt Q6R327); test: pull-down; HEK293T cells with stable knockdown of mSIN, co-transfected with one SFB-tagged and one Myc-tagged protein (PTPN22 and RICTOR); 1% Triton X-100 buffer; S-protein agarose beads, immunoblot anti-Myc (Fig. 4C, 4H)
[9] = molecular target: mSIN1 (mammalian stress-activated protein kinase interacting protein) (human (endogenous in Jurkat, HEK293T, HCT116)) (UniProt Q9BPZ7); test: co-IP; endogenous proteins; Jurkat cells lysed in 0.3% CHAPS buffer; IP with control IgG or anti-mSIN antibody, immunoblot (Fig. 1C)

- binding [1]: binds
B1: MBP-PTPN22 (protein, UniProt Q9Y2R2 1-807)
chain: MDQREILQKFLDEAQSKKITKEEFANEFLKLKRQSTKYKADKTYPTTVAEKPKNIKKNRYKDILPYDYSRVELSLITSDEDSSYINANFIKGVYGPKAYIATQGPLSTTLLDFWRMIWEYSVLIIVMACMEYEMGKKKCERYWAEPGEMQLEFGPFSVSCEAEKRKSDYIIRTLKVKFNSETRTIYQFHYKNWPDHDVPSSIDPILELIWDVRCYQEDDSVPICIHCSAGCGRTGVICAIDYTWMLLKDGIIPENFSVFSLIREMRTQRPSLVQTQEQYELVYNAVLELFKRQMDVIRDKHSGTESQAKHCIPEKNHTLQADSYSPNLPKSTTKAAKMMNQQRTKMEIKESSSFDFRTSEISAKEELVLHPAKSSTSFDFLELNYSFDKNADTTMKWQTKAFPIVGEPLQKHQSLDLGSLLFEGCSNSKPVNAAGRYFNSKVPITRTKSTPFELIQQRETKEVDSKENFSYLESQPHDSCFVEMQAQKVMHVSSAELNYSLPYDSKHQIRNASNVKHHDSSALGVYSYIPLVENPYFSSWPPSGTSSKMSLDLPEKQDGTVFPSSLLPTSSTSLFSYYNSHDSLSLNSPTNISSLLNQESAVLATAPRIDDEIPPPLPVRTPESFIVVEEAGEFSPNVPKSLSSAVKVKIGTSLEWGGTSEPKKFDDSVILRPSKSVKLRSPKSELHQDRSSPPPPLPERTLESFFLADEDCMQAQSIETYSTSYPDTMENSTSSKQTLKTPGKSFTRSKSLKILRNMKKSICNSCPPNKPAESVQSNNSSSFLNFGFANRFSKPKGPRNPPPTWNI

- binding [2]: binds
B2: His-PTPN22 (protein, UniProt Q9Y2R2 1-807)
chain: MDQREILQKFLDEAQSKKITKEEFANEFLKLKRQSTKYKADKTYPTTVAEKPKNIKKNRYKDILPYDYSRVELSLITSDEDSSYINANFIKGVYGPKAYIATQGPLSTTLLDFWRMIWEYSVLIIVMACMEYEMGKKKCERYWAEPGEMQLEFGPFSVSCEAEKRKSDYIIRTLKVKFNSETRTIYQFHYKNWPDHDVPSSIDPILELIWDVRCYQEDDSVPICIHCSAGCGRTGVICAIDYTWMLLKDGIIPENFSVFSLIREMRTQRPSLVQTQEQYELVYNAVLELFKRQMDVIRDKHSGTESQAKHCIPEKNHTLQADSYSPNLPKSTTKAAKMMNQQRTKMEIKESSSFDFRTSEISAKEELVLHPAKSSTSFDFLELNYSFDKNADTTMKWQTKAFPIVGEPLQKHQSLDLGSLLFEGCSNSKPVNAAGRYFNSKVPITRTKSTPFELIQQRETKEVDSKENFSYLESQPHDSCFVEMQAQKVMHVSSAELNYSLPYDSKHQIRNASNVKHHDSSALGVYSYIPLVENPYFSSWPPSGTSSKMSLDLPEKQDGTVFPSSLLPTSSTSLFSYYNSHDSLSLNSPTNISSLLNQESAVLATAPRIDDEIPPPLPVRTPESFIVVEEAGEFSPNVPKSLSSAVKVKIGTSLEWGGTSEPKKFDDSVILRPSKSVKLRSPKSELHQDRSSPPPPLPERTLESFFLADEDCMQAQSIETYSTSYPDTMENSTSSKQTLKTPGKSFTRSKSLKILRNMKKSICNSCPPNKPAESVQSNNSSSFLNFGFANRFSKPKGPRNPPPTWNI

- binding [3]: no binding
- binding [4]: no binding
- binding [5]: binds
- binding [6]: binds
- binding [7]: binds
- binding [8]: binds
B3: Myc-PTPN22 (protein, UniProt Q9Y2R2 1-807)
chain: MDQREILQKFLDEAQSKKITKEEFANEFLKLKRQSTKYKADKTYPTTVAEKPKNIKKNRYKDILPYDYSRVELSLITSDEDSSYINANFIKGVYGPKAYIATQGPLSTTLLDFWRMIWEYSVLIIVMACMEYEMGKKKCERYWAEPGEMQLEFGPFSVSCEAEKRKSDYIIRTLKVKFNSETRTIYQFHYKNWPDHDVPSSIDPILELIWDVRCYQEDDSVPICIHCSAGCGRTGVICAIDYTWMLLKDGIIPENFSVFSLIREMRTQRPSLVQTQEQYELVYNAVLELFKRQMDVIRDKHSGTESQAKHCIPEKNHTLQADSYSPNLPKSTTKAAKMMNQQRTKMEIKESSSFDFRTSEISAKEELVLHPAKSSTSFDFLELNYSFDKNADTTMKWQTKAFPIVGEPLQKHQSLDLGSLLFEGCSNSKPVNAAGRYFNSKVPITRTKSTPFELIQQRETKEVDSKENFSYLESQPHDSCFVEMQAQKVMHVSSAELNYSLPYDSKHQIRNASNVKHHDSSALGVYSYIPLVENPYFSSWPPSGTSSKMSLDLPEKQDGTVFPSSLLPTSSTSLFSYYNSHDSLSLNSPTNISSLLNQESAVLATAPRIDDEIPPPLPVRTPESFIVVEEAGEFSPNVPKSLSSAVKVKIGTSLEWGGTSEPKKFDDSVILRPSKSVKLRSPKSELHQDRSSPPPPLPERTLESFFLADEDCMQAQSIETYSTSYPDTMENSTSSKQTLKTPGKSFTRSKSLKILRNMKKSICNSCPPNKPAESVQSNNSSSFLNFGFANRFSKPKGPRNPPPTWNI

- binding [9]: binds
B4: PTPN22 (protein tyrosine phosphatase non-receptor type 22) (protein, UniProt Q9Y2R2 1-807)
chain: MDQREILQKFLDEAQSKKITKEEFANEFLKLKRQSTKYKADKTYPTTVAEKPKNIKKNRYKDILPYDYSRVELSLITSDEDSSYINANFIKGVYGPKAYIATQGPLSTTLLDFWRMIWEYSVLIIVMACMEYEMGKKKCERYWAEPGEMQLEFGPFSVSCEAEKRKSDYIIRTLKVKFNSETRTIYQFHYKNWPDHDVPSSIDPILELIWDVRCYQEDDSVPICIHCSAGCGRTGVICAIDYTWMLLKDGIIPENFSVFSLIREMRTQRPSLVQTQEQYELVYNAVLELFKRQMDVIRDKHSGTESQAKHCIPEKNHTLQADSYSPNLPKSTTKAAKMMNQQRTKMEIKESSSFDFRTSEISAKEELVLHPAKSSTSFDFLELNYSFDKNADTTMKWQTKAFPIVGEPLQKHQSLDLGSLLFEGCSNSKPVNAAGRYFNSKVPITRTKSTPFELIQQRETKEVDSKENFSYLESQPHDSCFVEMQAQKVMHVSSAELNYSLPYDSKHQIRNASNVKHHDSSALGVYSYIPLVENPYFSSWPPSGTSSKMSLDLPEKQDGTVFPSSLLPTSSTSLFSYYNSHDSLSLNSPTNISSLLNQESAVLATAPRIDDEIPPPLPVRTPESFIVVEEAGEFSPNVPKSLSSAVKVKIGTSLEWGGTSEPKKFDDSVILRPSKSVKLRSPKSELHQDRSSPPPPLPERTLESFFLADEDCMQAQSIETYSTSYPDTMENSTSSKQTLKTPGKSFTRSKSLKILRNMKKSICNSCPPNKPAESVQSNNSSSFLNFGFANRFSKPKGPRNPPPTWNI
